According to paper PMC4336329 (PLoS ONE, 2015):
Screen size: about 310,000 compounds; about 2,200 (0.71%) showed an effect of 50% or more. Effects have a minus sign here. Some of the results follow.

molecular target: human ether-à-go-go-related gene (hERG) potassium channel (human, UniProt Q12809); test: primary screen, population patch clamp on CHO cells stably expressing hERG
Sequence (Q12809 whole entry, looked up): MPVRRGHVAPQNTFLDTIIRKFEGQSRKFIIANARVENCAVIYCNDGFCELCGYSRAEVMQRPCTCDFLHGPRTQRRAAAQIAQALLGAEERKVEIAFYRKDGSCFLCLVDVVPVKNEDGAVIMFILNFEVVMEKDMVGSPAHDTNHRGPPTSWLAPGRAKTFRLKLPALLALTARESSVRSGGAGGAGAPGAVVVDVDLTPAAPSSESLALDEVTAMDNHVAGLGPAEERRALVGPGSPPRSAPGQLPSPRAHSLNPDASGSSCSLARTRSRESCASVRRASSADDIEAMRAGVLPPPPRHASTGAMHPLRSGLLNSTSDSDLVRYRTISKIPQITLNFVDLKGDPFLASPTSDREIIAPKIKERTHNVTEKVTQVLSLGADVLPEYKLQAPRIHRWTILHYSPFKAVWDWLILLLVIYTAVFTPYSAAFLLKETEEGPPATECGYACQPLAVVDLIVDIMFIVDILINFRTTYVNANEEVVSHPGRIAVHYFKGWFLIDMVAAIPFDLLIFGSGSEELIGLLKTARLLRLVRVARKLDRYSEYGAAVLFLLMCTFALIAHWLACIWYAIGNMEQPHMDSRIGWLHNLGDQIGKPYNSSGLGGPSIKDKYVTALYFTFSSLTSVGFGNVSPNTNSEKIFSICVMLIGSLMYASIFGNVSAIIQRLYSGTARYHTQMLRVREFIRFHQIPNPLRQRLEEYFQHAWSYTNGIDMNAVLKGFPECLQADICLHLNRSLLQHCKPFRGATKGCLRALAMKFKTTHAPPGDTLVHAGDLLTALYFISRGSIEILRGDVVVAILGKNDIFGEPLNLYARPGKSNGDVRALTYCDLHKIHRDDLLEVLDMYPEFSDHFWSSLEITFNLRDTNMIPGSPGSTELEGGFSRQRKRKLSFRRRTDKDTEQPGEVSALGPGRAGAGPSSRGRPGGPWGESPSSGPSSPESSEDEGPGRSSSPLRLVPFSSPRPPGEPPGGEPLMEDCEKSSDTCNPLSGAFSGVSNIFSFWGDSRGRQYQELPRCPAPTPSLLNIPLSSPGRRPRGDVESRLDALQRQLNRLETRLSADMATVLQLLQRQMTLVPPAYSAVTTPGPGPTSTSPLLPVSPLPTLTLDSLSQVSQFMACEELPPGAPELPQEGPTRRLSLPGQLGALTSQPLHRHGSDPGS

Going from `CC1=CC(C)C2(CO)COC(c3ccc(O)cc3)C1C2C` (stereo not shown) to `CCN1C(=O)[C@@H]2[C@@H](c3ccc(-c4ccc(C(C)=O)cc4)c(OC)c3)N3CCC[C@@]3(C(=O)OC)[C@@H]2C1=O.O=C(O)C(F)(F)F`, the “hERG current change (%, negative = inhibition) at 1uM” value falls from 27.7% to 2.93%.

First: Cc1ccc(-n2c(C)cc(C)c(C#N)c2=O)cc1C
Second: COc1ccc(-n2c(SCc3ccc(C#N)cc3)nnc2-c2ccccn2)cc1
The “hERG current change (%, negative = inhibition) at 1uM” value of the first is higher: 20.8% for the first, -18.5% for the second.

First: Clc1cccc(CSc2ncn(-c3ccccc3)n2)c1
Second: Clc1ccc(CSc2cc3c(nn2)-c2ccccc2CC3)cc1
The “hERG current change (%, negative = inhibition) at 1uM” value of the first is lower: -5.99% for the first, 9.48% for the second.

Going from `CCN(c1nc(C)cc(OC)n1)S(=O)(=O)c1ccccc1` to `CCOC(=O)COc1cnc2ccccc2n1`, the “hERG current change (%, negative = inhibition) at 1uM” value rises from -3.88% to 7.8%.

Compared with `CCOc1ccc(NC(=O)Cn2cc(C(=O)CC)c3ccccc32)cc1`, `CC(C)c1ccc(NC(=O)Cc2cn(C)c3ccccc23)cc1` is lower in “hERG current change (%, negative = inhibition) at 1uM” value: 15.3% for the first, 7.62% for the second.

Compared with `Cn1c(Cn2c(=O)sc3ccccc32)nnc1SCC(=O)NCc1ccc2c(c1)OCO2`, `N#C/C(=C\c1cn(CC(=O)N2CCCC2)c2ccccc12)C(=O)NCc1ccc2c(c1)OCO2` is lower in “hERG current change (%, negative = inhibition) at 1uM” value: 2.81% for the first, -3.37% for the second.

First: O=C(NCc1cccnc1)C(C(=O)c1ccc(F)cc1)n1ccccc1=O (stereo not shown)
Second: O=C(Nc1cccc2ccccc12)c1ccc(Cn2cc(Cl)cn2)cc1
The “hERG current change (%, negative = inhibition) at 1uM” value of the first is lower: 4.16% for the first, 6.3% for the second.

Going from `Cc1ccc(S(=O)(=O)N2CCC(=O)N(CCOCc3cccc(Cl)c3)CC2)cc1` to `Cc1ccc(S(=O)(=O)/N=C(/c2ccc(F)cc2)N2CCCC2)cc1`, the “hERG current change (%, negative = inhibition) at 1uM” value rises from -11.5% to 16.1%.

First: CCOc1ccc2nc(N3CCC(C(=O)N4CCN(C(=O)c5ccco5)CC4)CC3)sc2c1
Second: NC(=O)C1CCCN(Cc2c(C(=O)N3CCc4ccccc4C3)nc3ccc(Cl)cn23)C1 (stereo not shown)
The “hERG current change (%, negative = inhibition) at 1uM” value of the first is lower: -89.3% for the first, 7.5% for the second.

Going from `Nc1ccc(CN2CCOCC2)cc1` to `COC(=O)[C@H](C)NC(=O)NC1CCN(Cc2ccccc2)CC1`, the “hERG current change (%, negative = inhibition) at 1uM” value falls from 16% to 0.144%.

Going from `CC(C)C[C@H]1COCCS(=O)(=O)N1Cc1ccccc1F` to `CC(C)(C)n1nnnc1C(c1ccccc1F)N(Cc1ccco1)CC1CCCO1` (stereo not shown), the “hERG current change (%, negative = inhibition) at 1uM” value rises from 4.88% to 7.72%.

Going from `C=C(C)C1CC=C(C)/C(=N/NC(=O)COc2ccc(C)cc2)C1` (stereo not shown) to `CC(C)COc1ccc(C(=O)Nc2ccc([N+](=O)[O-])cc2)cc1`, the “hERG current change (%, negative = inhibition) at 1uM” value falls from 10.8% to 4.98%.

First: CCC(=O)c1ccc(OCC(=O)Nc2cccc(S(=O)(=O)N(C)c3ccccc3)c2)cc1
Second: CCN(CC(=O)Nc1ccc(NC(C)=O)cc1)C(=O)c1cc(-c2ccccc2)nn1-c1ccccc1
The “hERG current change (%, negative = inhibition) at 1uM” value of the first is lower: 5.86% for the first, 9.47% for the second.

Compared with `Cc1ccc(C2(c3ccc(C)cc3)NC(=O)N(CC(N)=O)C2=O)cc1`, `Cc1cc(C(=O)COC(=O)c2ccc[nH]c2=O)c(C)n1CCc1ccc(F)cc1` is lower in “hERG current change (%, negative = inhibition) at 1uM” value: 16.9% for the first, 14.3% for the second.

Going from `CNC(=S)N/N=C(\C)c1ccc(-n2ccnc2)cc1` to `C=CCSc1nccc(-c2nn(-c3ccc(C)cc3)ccc2=O)n1`, the “hERG current change (%, negative = inhibition) at 1uM” value rises from 2.32% to 17.3%.

First: Cc1ccccc1CSc1nnc(-c2ccccn2)n1N
Second: Cc1cccc(C)c1NC(=O)CN1CCc2ccccc2C1
The “hERG current change (%, negative = inhibition) at 1uM” value of the first is lower: 13.6% for the first, 15.9% for the second.

Going from `COCCN(C(=O)c1c(C)noc1C)c1c(N)n(CC(C)C)c(=O)[nH]c1=O` to `CCCCN(C(=O)c1cccc(N2C(=O)c3ccccc3C2=O)c1)c1c(N)n(CC(C)C)c(=O)[nH]c1=O`, the “hERG current change (%, negative = inhibition) at 1uM” value falls from 13.6% to -3.8%.

Going from `Cn1c(=O)oc2cc(S(=O)(=O)NCc3ccc(Cl)cc3)ccc21` to `Cc1c(Cl)cccc1NC(=S)NCc1ccc(Cl)cc1`, the “hERG current change (%, negative = inhibition) at 1uM” value falls from 15.3% to 1.52%.

First: CC1CCN(C(=O)CSc2nnc(-c3ccccc3F)o2)CC1
Second: Cc1ccc(-n2nnc3c(=O)n(CC(=O)N4CCC(C)CC4)cnc32)cc1
The “hERG current change (%, negative = inhibition) at 1uM” value of the first is higher: 4.66% for the first, -20% for the second.

Compared with `CC(C)(C)NC(=O)c1ccc2c3c(cccc13)CC2`, `COc1ccccc1-c1cc(C(=O)NCc2ccco2)no1` is higher in “hERG current change (%, negative = inhibition) at 1uM” value: -7.92% for the first, 2.54% for the second.

Going from `Cc1cc(Nc2ccc(Cl)cc2)nc(N)n1` to `Cc1ccc2cc(CN(CCN(C)C)C(=O)Nc3ccc(Cl)cc3)c(=O)[nH]c2c1`, the “hERG current change (%, negative = inhibition) at 1uM” value falls from 2.49% to -20.7%.

Going from `COc1ccc(NC(=O)C2CCN(S(=O)(=O)c3ccc4c(c3)CC(C)N4C(C)=O)CC2)c(OC)c1` (stereo not shown) to `COc1ccc(NC(=O)N2CCCC(C(=O)Nc3ccccc3OC)C2)cc1` (stereo not shown), the “hERG current change (%, negative = inhibition) at 1uM” value falls from 8.18% to 7%.

First: COc1ccc(CNc2cc(C)nc3ncnn23)c(OC)c1
Second: COc1ccc2c(c1)c(C(=O)O)c(C)n2CC(C)C
The “hERG current change (%, negative = inhibition) at 1uM” value of the first is higher: -1.15% for the first, -2.31% for the second.

Compared with `Cc1c(NC(=O)/C=C/C(=O)O)cccc1[N+](=O)[O-]`, `Cc1cccc(NC(=O)CCC(=O)N/N=C/c2ccco2)c1C` is higher in “hERG current change (%, negative = inhibition) at 1uM” value: 4.62% for the first, 10% for the second.

Going from `FC(F)(F)c1ccc(Sc2nnc(-c3cccs3)n2CC2CCCO2)nc1` (stereo not shown) to `Cc1cc(NC(=O)CSc2nc(-c3cccs3)nc3ccccc23)no1`, the “hERG current change (%, negative = inhibition) at 1uM” value rises from 6.68% to 12.5%.

Going from `Fc1ccccc1-c1nc(-c2ccccc2)no1` to `O=C1OCC(c2ccccc2)=C1c1ccccc1[N+](=O)[O-]`, the “hERG current change (%, negative = inhibition) at 1uM” value falls from 7.54% to 2.22%.

Going from `CCCCn1c(SCC(=O)Nc2cccc(OC)c2)nc2ccc(N3CCOCC3)cc2c1=O` to `COc1ccc(-n2ccnc(SCC(=O)NCc3ccccc3Cl)c2=O)cc1`, the “hERG current change (%, negative = inhibition) at 1uM” value falls from 7.31% to 4.72%.

Compared with `NC(=O)CCN1CCN(Cc2cn[nH]c2-c2cccc3ccccc23)CC1`, `Cc1ccc(-c2nc(CS(=O)(=O)CC(=O)NCCCN3CCN(C)CC3)c(C)o2)cc1` is higher in “hERG current change (%, negative = inhibition) at 1uM” value: 2.16% for the first, 14.4% for the second.

First: CC(C)C[C@H](NC(=O)c1nc[nH]c1C(=O)N[C@@H](CCCCNC(=O)OC(C)(C)C)C(=O)OC(C)(C)C)C(=O)OC(C)(C)C
Second: COc1ccc(C(C(=O)NC(C)(C)C)N(Cc2ccc(F)cc2)C(=O)CCC(=O)Nc2cc(C)on2)cc1 (stereo not shown)
The “hERG current change (%, negative = inhibition) at 1uM” value of the first is higher: 12.7% for the first, 3.49% for the second.

Going from `Cc1ccc2nc(C(O)C(O)c3nc4ccc(C)cc4[nH]3)[nH]c2c1` (stereo not shown) to `CCCCn1c(NC(=O)c2ccc(F)cc2)c(C#N)c2nc3ccccc3nc21`, the “hERG current change (%, negative = inhibition) at 1uM” value rises from -4.84% to 7.71%.

Compared with `CCOC(=O)Cc1csc(NC(=O)CCCc2ccccc2)n1`, `CCOc1ccccc1N(CC(=O)NCC1CCCO1)C(=O)CCC(=O)Nc1nccs1` (stereo not shown) is lower in “hERG current change (%, negative = inhibition) at 1uM” value: 14.8% for the first, 4.55% for the second.

Going from `CCOC(=O)CSc1nc2sc3c(c2c(=O)[nH]1)CC(C)(CC)OC3` (stereo not shown) to `CCc1c(C)nc(SCC(=O)NNC(=O)Cc2ccc(OC)cc2)[nH]c1=O`, the “hERG current change (%, negative = inhibition) at 1uM” value falls from 8.73% to 1.95%.

First: Nc1nnc(CSCc2ccccc2)s1
Second: Cc1[nH]c2ccc(-c3nnc(SCC(=O)NCc4ccco4)n3Cc3ccccc3)cc2c1C
The “hERG current change (%, negative = inhibition) at 1uM” value of the first is lower: 1.3% for the first, 10.1% for the second.

First: COc1cc(/C=N/Nc2nc(-c3ccc(S(=O)(=O)N(C)C)cc3)cs2)ccc1O
Second: Nc1cc(-c2cccc(F)c2)nn1S(=O)(=O)c1cccc2nsnc12
The “hERG current change (%, negative = inhibition) at 1uM” value of the first is lower: 6.36% for the first, 8.09% for the second.

First: O=C(Nc1ccc(OC(F)(F)F)cc1)c1ccc(-n2cncn2)nc1
Second: O=C(COC(=O)c1ccc(Cl)nc1)Nc1ccc(S(=O)(=O)N2CCCC2)cc1
The “hERG current change (%, negative = inhibition) at 1uM” value of the first is higher: 0.916% for the first, 0.509% for the second.

Going from `Nc1ccc(Oc2ccc3c(c2)OCO3)cc1` to `CN(CC(=O)Nc1ccc(F)c(F)c1F)C(=O)Cc1ccc2c(c1)OCCO2`, the “hERG current change (%, negative = inhibition) at 1uM” value falls from 15.2% to 8.2%.

Compared with `Cc1cnc(-c2nnc(N(C)C(=O)c3cccnc3)s2)cn1`, `Cc1nnc(SCC(=O)NC(=O)Nc2ccc3c(c2)OCCO3)s1` is lower in “hERG current change (%, negative = inhibition) at 1uM” value: 10.2% for the first, 7.61% for the second.

Going from `CC(O)(C#CCN1CCCC1)c1ccccc1` (stereo not shown) to `O=C(Cc1ccccc1F)Nc1ccc(S(=O)(=O)N2CCCCC2)cc1`, the “hERG current change (%, negative = inhibition) at 1uM” value rises from 4.16% to 8.87%.

Compared with `O=C(O)CCC(=O)N1CCC[C@H]1C(=O)O`, `O=C(O)C1CCCN(S(=O)(=O)c2ccc(Cl)s2)C1` (stereo not shown) is higher in “hERG current change (%, negative = inhibition) at 1uM” value: -9.92% for the first, 3.79% for the second.

First: O=C1CC(c2ccc(F)cc2)Cc2nc(N3CCN(c4ccccc4)CC3)ncc21 (stereo not shown)
Second: O=c1[nH]cnc2c1sc1nc(-c3ccccc3)c3c(c12)CCCC3
The “hERG current change (%, negative = inhibition) at 1uM” value of the first is higher: 7.55% for the first, 5.09% for the second.

Going from `O=C(O)CSCc1nc2cccnc2n1C1CCCCC1` to `COc1ccc2[nH]c(=O)c(CN(C)C(=O)C3CCCCC3)cc2c1`, the “hERG current change (%, negative = inhibition) at 1uM” value falls from 17.1% to 6.86%.

Going from `O=C/C(=C\Nc1ccc(Cl)cn1)c1nc2ccccc2o1` to `O=C(O)CCCN1C(=O)c2ccc(C(=O)c3cccc([N+](=O)[O-])c3)cc2C1=O`, the “hERG current change (%, negative = inhibition) at 1uM” value falls from 19.2% to 9.19%.

Compared with `O=C(CN1CCCC1=O)N1CCOCC1`, `Cc1ccc(S(=O)(=O)N2CCOCC2)cc1NC(=O)CN1CCN(C)CC1` is higher in “hERG current change (%, negative = inhibition) at 1uM” value: 4.59% for the first, 5.77% for the second.

Going from `O=C(COc1ccc(Cl)cc1Br)NNC(=O)C(=O)N1CCCCC1` to `Nc1nc(SCC(=O)NNc2c(Cl)cc(Cl)cc2Cl)n[nH]1`, the “hERG current change (%, negative = inhibition) at 1uM” value falls from 13.7% to 12%.
